Experimental data published in the supplement of paper PMC4604168 (melanoma cell lines).
Some of the results follow. Many values rest on one well or one pass, so single values are uncertain.

Legend:
Test in all cases: cell count relative to DMSO control; melanoma cells; higher = more viable cells
Settings in all cases: library dose: low library concentration; 72 h
[1] = system: MZ2-MEL
[2] = system: MeWo
[3] = system: RPMI7951
[4] = system: RVH-421
[5] = system: SkMel28
[6] = system: SkMel2
[7] = system: SkMel30
[8] = system: SkMel5
[9] = system: UACC257
[10] = system: UACC62
[11] = system: WM115
[12] = system: WM1716
[13] = system: WM1745
[14] = system: WM3526
[15] = system: WM3619
[16] = system: WM451Lu
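Also: cell number obtained by counting DAPI-stained nuclei in high-throughput microscope images with image analysis software, screen run in 1,536-well plates.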

Row | SMILES | cell count [1] [%] | cell count [2] [%] | cell count [3] [%] | cell count [4] [%] | cell count [5] [%] | cell count [6] [%] | cell count [7] [%] | cell count [8] [%] | cell count [9] [%] | cell count [10] [%] | cell count [11] [%] | cell count [12] [%] | cell count [13] [%] | cell count [14] [%] | cell count [15] [%] | cell count [16] [%]
1 | C=C(c1ccc(C(=O)O)cc1)c1cc2c(cc1C)C(C)(C)CCC2(C)C [Bexarotene] + NCC(=O)Nc1ccc(-n2nc(C(F)(F)F)cc2-c2ccc3c(ccc4ccccc43)c2)cc1 [OSU03012] (first compound 2 µM, partner dose 1 µM) | 87.2 | 55.3 | 83.9 | 94.1 | 58 | 65.8 | 45.4 | 67.5 | 82.7 | 70.7 | 98.8 | 89 | 94 | 52 | 103 | 54.4
2 | C=C(c1ccc(C(=O)O)cc1)c1cc2c(cc1C)C(C)(C)CCC2(C)C [Bexarotene] + CN(C)S(=O)(=O)c1ccc2c(c1)/C(=C/c1cc3c([nH]1)CCCC3)C(=O)N2 [SU6656] (first compound 2 µM, partner dose 0.4 µM) | 105 | 97.2 | 94.7 | 104 | 74.8 | 98.5 | 110 | 96.7 | 88 | 75.9 | 85.5 | 92.4 | 101 | 108 | 96.5 | 74.9
3 | CS(=O)(=O)c1ccc(C(=O)Nc2ccc(Cl)c(-c3ccccn3)c2)c(Cl)c1 [vismodegib] + CC(C)(C)c1cnc(CSc2cnc(NC(=O)C3CCNCC3)s2)o1 [SNS-032] (first compound 1 µM, partner dose 0.01 µM) | 99.8 | 100 | 77.3 | 104 | 89.2 | 103 | 97.7 | 92.2 | 50.2 | 89.4 | 97.5 | 85.8 | 94.9 | 103 | 95.4 | 126
4 | C=C(c1ccc(C(=O)O)cc1)c1cc2c(cc1C)C(C)(C)CCC2(C)C [Bexarotene] + Cn1cc(/C=C2\C(=O)Nc3cccnc32)c2ccccc21 [GW441756] (first compound 2 µM, partner dose 0.4 µM) | 91.9 | 89.2 | 71.5 | 83.4 | 69.2 | 102 | 91.7 | 78.5 | 78.6 | 88.2 | 102 | 83.8 | 103 | 82 | 101 | 104
5 | CCCS(=O)(=O)Nc1ccc(F)c(C(=O)c2c[nH]c3ncc(Cl)cc23)c1F + Oc1nc(-c2ccc(C(F)(F)F)cc2)nc2c1CSCC2 [XAV939] (first compound 0.08 µM, partner dose 2 µM) | 91.6 | 93.9 | 103 | 91 | 93.8 | 99.4 | 98.4 | 94.4 | 90.9 | 81.5 | 94.5 | 74 | 76.6 | 73.8 | 81.9 | 98.6
6 | CCCS(=O)(=O)Nc1ccc(F)c(C(=O)c2c[nH]c3ncc(Cl)cc23)c1F + COc1cc(Nc2ncc(F)c(Nc3ccc4c(n3)NC(=O)C(C)(C)O4)n2)cc(OC)c1OC [Tamatinib] (first compound 0.08 µM, partner dose 0.4 µM) | 83.9 | 88 | 84 | 93.4 | 82.9 | 91.1 | 73.9 | 97.3 | 67.5 | 70.5 | 77.3 | 97.2 | 69.2 | 60.3 | 99.7 | 91.2
7 | CS(=O)(=O)c1ccc(C(=O)Nc2ccc(Cl)c(-c3ccccn3)c2)c(Cl)c1 [vismodegib] + COC(=O)c1sccc1S(=O)(=O)Nc1ccc(Nc2ccccc2)cc1OC [GSK0660] (first compound 1 µM, partner dose 1 µM) | 102 | 114 | 86.1 | 118 | 114 | 93.5 | 101 | 92.5 | 117 | 96.8 | 97.1 | 102 | 97.9 | 104 | 80.7 | 104
8 | CN(c1ncccc1CNc1nc(Nc2ccc3c(c2)CC(=O)N3)ncc1C(F)(F)F)S(C)(=O)=O + COc1cc(Nc2ncc(F)c(Nc3ccc4c(n3)NC(=O)C(C)(C)O4)n2)cc(OC)c1OC [Tamatinib] (first compound 0.08 µM, partner dose 0.4 µM) | 75.9 | 93.4 | 66.2 | 68.6 | 78.1 | 93 | 85.2 | 92.7 | 48.6 | 75.5 | 75.1 | 80.4 | 46.3 | 102 | 86 | 88
9 | NC1(c2ccc(-c3nc4ccn5c(=O)[nH]nc5c4cc3-c3ccccc3)cc2)CCC1 + CC(C)(C)c1cnc(CSc2cnc(NC(=O)C3CCNCC3)s2)o1 [SNS-032] (first compound 0.4 µM, partner dose 0.01 µM) | 104 | 88.9 | 83.3 | 93 | 65.5 | 87.3 | 92.7 | 90 | 83 | 64.2 | 75.5 | 103 | 88.8 | 75.4 | 95.3 | 101
